The target of this test is T1, human β-klotho (human, UniProt Q86Z14 1-1044).
T1 sequence (looked up): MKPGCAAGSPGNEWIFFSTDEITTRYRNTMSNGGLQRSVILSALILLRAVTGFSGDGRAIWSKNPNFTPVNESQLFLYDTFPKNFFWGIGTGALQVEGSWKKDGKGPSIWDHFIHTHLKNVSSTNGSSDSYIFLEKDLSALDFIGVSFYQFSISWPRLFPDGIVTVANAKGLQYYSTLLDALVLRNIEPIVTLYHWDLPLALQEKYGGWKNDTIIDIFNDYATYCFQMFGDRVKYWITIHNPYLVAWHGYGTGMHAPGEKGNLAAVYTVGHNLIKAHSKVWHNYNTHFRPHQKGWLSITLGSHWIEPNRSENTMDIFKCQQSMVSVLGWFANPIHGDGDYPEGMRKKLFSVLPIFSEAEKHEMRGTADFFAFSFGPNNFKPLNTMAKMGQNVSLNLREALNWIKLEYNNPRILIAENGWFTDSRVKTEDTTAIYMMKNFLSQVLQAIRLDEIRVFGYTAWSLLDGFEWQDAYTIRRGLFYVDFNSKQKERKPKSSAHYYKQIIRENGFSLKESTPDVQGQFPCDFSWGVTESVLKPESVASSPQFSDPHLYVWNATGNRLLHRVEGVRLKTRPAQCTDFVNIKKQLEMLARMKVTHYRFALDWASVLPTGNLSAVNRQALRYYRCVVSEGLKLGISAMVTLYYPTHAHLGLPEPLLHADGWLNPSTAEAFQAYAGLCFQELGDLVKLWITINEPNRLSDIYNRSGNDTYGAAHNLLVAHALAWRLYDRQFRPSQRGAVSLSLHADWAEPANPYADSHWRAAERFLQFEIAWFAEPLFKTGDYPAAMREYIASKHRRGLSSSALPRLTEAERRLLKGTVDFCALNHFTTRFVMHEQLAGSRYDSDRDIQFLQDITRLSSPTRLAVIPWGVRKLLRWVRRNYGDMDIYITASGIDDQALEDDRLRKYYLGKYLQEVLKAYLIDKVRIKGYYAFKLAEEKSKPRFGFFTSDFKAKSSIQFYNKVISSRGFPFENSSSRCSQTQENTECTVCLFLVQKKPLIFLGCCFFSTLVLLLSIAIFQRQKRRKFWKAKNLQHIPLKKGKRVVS
The experiment in a line: cell-based or functional assay.

One molecule from patent US20250270269A1 (YUHAN, published 2025) can be followed below.

B1: Fc-FGF21 (Lilly) (Fc fusion)
chain: [gap - human IgG4 Fc with S228P F234A L235A (EU numbers)]GGGGSGGGGSGGGGSAHPIPDSSPLLQFGGQVRQRYLYTDDAQQTECHLEIREDGTVGCAADQSPESLLQLKALKPGVIQILGVKTSRFLCQRPDGALYGSLHFDPEACSFREDLKEDGYNVYQSEAHGLPLHLPGDKSPHRKPAPRGPARFLPLPGLPPALPEPPGILAPQPPDVGSSDPLRLVEPSQLRSPSFE
In the case of B1, the “in vitro FGF21 activity (ERK phosphorylation, EC50 compared)” value is 2 times higher activity than DFD1 and RGE (Amgen).
